This note sets out measurements from ChEMBL document CHEMBL5308541, “MAIP: An Open-Source Tool to Enrich High-Throughput Screening Output and Identify Novel, Druglike Molecules with Antimalarial Activity” (ACS Med Chem Lett, 2023).

Molecules are shown by their SMILES. About 540 (0.36%) of roughly 150,000 compounds showed an effect of 50% or more. The list shows a part of the results.

One may read the % Inhibition as the change of the read-out against control, counted positive when it falls.

The assay concerns Plasmodium falciparum. Put plainly: Primary screen in NF54 nanoGlo assay, in single point, at 2uM, 72h; a lower Z score goes with more inhibition. The format is functional, Erythrocyte. To be noted: timepoint 72 hour.
Take `CCOC1CC(Nc2cccc(C(=O)NCC(=O)NC)c2)C12CCC2` (stereo not given): the “% Inhibition” value is -5% and the Z score was determined as 1.05.
For `O=C(Cc1ccc(N2CCC(NCCCc3ccncc3)CC2)cc1)NCCc1cccc(F)c1` the same measures were -18% and 3.49.
Taken in the same sequence, the figures for `O[C@H]1CCCN(c2ccnc(NCC3(N4CCOCC4)CCCCC3)n2)C1` were -8% and 1.36.
Taken in the same sequence, the figures for `CCc1c[nH]c(=O)c(C(=O)Nc2ccc3c(c2)CN(CC(N)=O)CC3)c1` were -6% and 1.32.
Consider `CC(C)CN1CCC(N2CCN(c3cc(N)nc(N)n3)CC2)CC1`, for which the “% Inhibition” value is listed as -14% and the Z score was determined as 2.38.
Taken in the same sequence, the figures for `Cc1cc(Nc2nccc(N3CCc4ccccc4C3)n2)no1` were -15% and 2.21.
Taken in the same sequence, the figures for `O=C(CNC(=O)c1ccc(F)cc1)Nc1cccc(Nc2nc3ccccc3s2)c1` were 0% and -0.03.
Take `Oc1cc(NCCCN2CCC[C@H](O)C2)ncn1`: the “% Inhibition” value is recorded as -8% and the Z score is given as 1.25.
Taken in the same sequence, the figures for `Cc1noc(-c2ccnc(NCc3cnn(-c4cccc(F)c4)c3)c2)n1` were -13% and 2.72.
Taken in the same sequence, the figures for `O=C(c1ccc2[nH]cnc2c1)N1CCC[C@H](CN2CCCCCC2)C1` were 2% and -0.52.
Taken in the same sequence, the figures for `CC(C)Oc1ccccc1-c1ccc(NCCN2CCOCC2)nc1` were -13% and 2.8.
Take `NC(=O)CCn1cc(-c2ccc(C(=O)NCCN3CCCCCC3)cc2)cn1`: the “% Inhibition” value was -7% and the Z score is on record as 1.36.
For `O[C@@]1(c2c[nH]nn2)CCN(c2ccnc3cc(Cl)ccc23)C1` the same measures were 44% and -6.63.
For `Nc1cncc(-c2ccc(C(=O)NCCCN3CCNC(=O)C3)cc2)c1` the same measures were 2% and -0.47.
For `NCCCCc1c(-c2cccnc2)[nH]c2c(Cl)cc(Cl)cc12` the same measures were 34% and -5.94.
On to `OC1CCC(Nc2nccc3occc23)CC1` (stereo not given), for which the “% Inhibition” value is recorded as 4% and the Z score is on record as -0.61.
For `CCn1c(Cn2ccnc2C)nnc1C1CCN(Cc2c[nH]cn2)CC1` the same measures were 3% and -0.56.
Taken in the same sequence, the figures for `CCc1nc2cc(-c3ccc(C(=O)N4CCC[C@H](OC)C4)cc3)cnc2[nH]1` were 4% and -0.84.
Taken in the same sequence, the figures for `OC[C@H](CNCc1cc2ccc(F)cc2[nH]1)c1ccccc1Cl` were 41% and -6.28.
With `CNc1nc(N2CCC(N(C)CCN(C)C)CC2)ncc1F`, the “% Inhibition” value is on record as -5% and the Z score is 0.91.
Taken in the same sequence, the figures for `Cc1cc(NCc2c(C)ccc3ncccc23)nc(N)n1` were 3% and -0.51.
In the case of `Cn1ccnc1-c1ccc(NC2COCC2N2CCCC2)nn1` (stereo not given), the “% Inhibition” value is recorded as -10% and the Z score was determined as 1.53.
Taken in the same sequence, the figures for `COc1cc(N2CCC(CNC(=O)CN3CCCN(C)CC3)CC2)nc(N)n1` were 11% and -1.84.
As for `CC(C)N1CCC(Nc2ccccc2N2CCN(C)CC2)CC1`, the “% Inhibition” value came to 0% and the Z score is -0.05.
As for `Cc1ccncc1N(C)C(=O)Cc1ccn(CC(F)(F)F)n1`, the “% Inhibition” value is recorded as -3% and the Z score was found to be 0.75.
For `COc1cc(NC2COCC2N2CCCCC2)ncn1` (stereo not given) the same measures were -13% and 2.66.
Taken in the same sequence, the figures for `Cc1ncc(S(N)(=O)=O)cc1-c1nc(C(C)(C)C)no1` were -11% and 2.24.
`Cc1nsc(NCCCCN2CCOCC2)n1`: the “% Inhibition” value is given as -14% and the Z score was 2.42.
For `Cc1cc(CC(=O)N2C3CCC2CC(Cc2ccccc2)C3)n[nH]1` (stereo not given) the same measures were -7% and 1.45.
On to `CN(CC1CCN(CCc2ccc(F)cc2)CC1)C(=O)c1ccc2c(c1)OCO2`, for which the “% Inhibition” value is -3% and the Z score is 0.5.
For the molecule `Cc1nc(C)c(C)c(N2CC(c3ccccn3)C2)n1`, the “% Inhibition” value is -2% and the Z score is 0.38.
Taken in the same sequence, the figures for `Cc1nc(-c2ccccn2)nc(NC2CCN(CC(F)F)CC2)c1C` were 43% and -9.26.
As for `CN(C)C1CCN(CCN[C@H]2CCc3ccc(F)cc32)CC1`, the “% Inhibition” value came out at 87% and the Z score is given as -15.32.
Taken in the same sequence, the figures for `CC(C)CC(=O)N1CCCN(Cc2ccc(-c3ccccn3)cc2)CCCCNC(=O)[C@@H]2C[C@H]1CN2` were 2% and -0.39.
Taken in the same sequence, the figures for `CCC1(CC)CN(Cc2conc2Cc2ccccc2)C1` were 3% and -0.44.
With `O=C(NC1CCN(Cc2cc(F)cc(F)c2)CC1)[C@@H]1CC2(CCNCC2)CN1`, the “% Inhibition” value is given as 2% and the Z score is on record as -0.4.
In the case of `O=C(CN1CCCCCCC1)N1CC2CCC1CNC2` (stereo not given), the “% Inhibition” value turned out to be 6% and the Z score is on record as -1.24.
Taken in the same sequence, the figures for `Cc1[nH]c(CN2CC(O)C(N3CCOCC3)C2)cc1C#N` (stereo not given) were 0% and 0.08.
As to `CC(NC(=O)OC(C)(C)C)C1COCCC1NC1CCN(c2ccccc2)C1` (stereo not given), the “% Inhibition” value is on record as -4% and the Z score is reported as 0.7.
Taken in the same sequence, the figures for `CC(C)(C)OC[C@@H](O)CN1CCN(CCNC(=O)c2ccnc3ccccc23)CC1` were -7% and 1.03.
Regarding `OC[C@H]1CCCN(CCCNc2cnccn2)C1`, the “% Inhibition” value is -11% and the Z score is listed as 1.86.
`COc1ccc2nc(C)nc(NCCCc3nc4cccnc4[nH]3)c2c1`: the “% Inhibition” value is listed as 0% and the Z score came out at 0.
For `C[C@@H](c1ccc(Cc2cnc3c(-c4ccccc4)cnn3c2)cc1)N1CCOCC1`, the “% Inhibition” value was -11% and the Z score was 1.65.
Regarding `Cc1cc(N[C@H](c2cccnc2)c2ccc(C)c(C)c2)nc(N)n1`, the “% Inhibition” value was -9% and the Z score turned out to be 1.33.
Taken in the same sequence, the figures for `COc1cc(CS(=O)(=O)N(Cc2cnn(C)c2)C2CC2)sn1` were 2% and -0.43.
For `c1ccc(-c2ncn(C[C@@H](c3ccncc3)N3CCOCC3)c2-c2c[nH]cn2)cc1` the same measures were -1% and 0.23.
For `Cc1ccc(OCCN=C(N)NC2CC2)cc1` the same measures were -9% and 1.6.
Take `CCn1nc(C)c(-c2cccc(C(=O)N(C)Cc3cnc(N)nc3)c2)c1C`: the “% Inhibition” value is reported as -7% and the Z score was found to be 1.53.
With `CNc1cc(C)nc(N2CCC(N3CCC[C@H](O)C3)CC2)n1`, the “% Inhibition” value is given as 2% and the Z score is on record as -0.33.
For `COc1ccnc(CN2CC[C@H](Nc3ncccn3)C2)c1OC` the same measures were -5% and 0.75.
Taken in the same sequence, the figures for `Cc1nc(N2CCC(NC(=O)c3ccc4nc(C)[nH]c4c3)CC2)cc(C(F)(F)F)n1` were 4% and -0.73.
Taken in the same sequence, the figures for `Cc1cn2nc(N[C@H]3CCN(c4cc(-c5cccnc5)nc(C)n4)C3)ccc2n1` were -7% and 1.56.
In the case of `Fc1ccccc1CN1CCC[C@H](NCc2cc(CN3CCCC3)cs2)C1`, the “% Inhibition” value was -3% and the Z score was 0.45.
For `COc1cccc(CCC(=O)N[C@@H](C)c2ncc(C(=O)O)s2)c1` the same measures were 7% and -1.17.
Taken in the same sequence, the figures for `O=C(c1cccc(-c2cnc3ccccc3c2)c1)N1CCN(CCCO)CC1` were -7% and 1.28.
